According to the supplement of paper PMC11417369:
The list shows a part of the results.

Each sequence was assayed on PfHDP1 homeodomain (GST-tagged) (assay: gcPBM binding intensity (ln(normalized median fluorescence intensity)); higher = stronger DNA binding).
Summary of the method: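 GST-tagged P. falciparum DNA-binding domains, expressed in E. coli (about 25 μg on average), were applied for 1 h to an Agilent 4 × 180k array of primer-extended double-stranded 36-bp intergenic genomic probes plus negative controls. The binding buffer was 1× PBS with 1% milk, 0.2 mg/ml BSA, 0.5% salmon testes DNA and 0.03% Triton X-100. Bound protein was detected with Alexa488 anti-GST antibody and scanned at 488 nm. Binding intensity is the highest Masliner-normalised natural-log median intensity across replicate spots of either probe orientation.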
In the case of “TATAAACATATAAAAAGTACATACCAATTAATATTA [XGTACX_site967]”, the “gcPBM binding intensity (ln)” value is reported as 6.11. For “AATATATTCATCATATCAATATTGTCAAGCAAACGA [TGCATGCA_negctrl_site37]”, the “gcPBM binding intensity (ln)” value was 6.52. For “TATTCTGTGTATAAAAGTACAAATATTTAAATGTAT [XGTACX_site8234]”, the “gcPBM binding intensity (ln)” value was 6.82. “TCTTTTAAAAATATAAAAAGGAATATATAAAAATGT [CACACA_negctrl_site332]” was tested, and the “gcPBM binding intensity (ln)” value was 6.65. “AAAAAAAACAGACACACACACATAAATATATATAAA [CACACA_site148]” was tested, and the “gcPBM binding intensity (ln)” value was 6.82. With “TAAATAATTTATAAGTGTACTATTATTGCACGAATA [XGTACX_site7715]” the “gcPBM binding intensity (ln)” value was 10.4. With “ATGATTTTTTCTGTATGTACATAAAAATAAAATTCT [XGTACX_site5698]” the “gcPBM binding intensity (ln)” value was 6.31. For “CATTAGGTCTTTTGTACATGCAAGTGTGTGCGTAAA [TGCATGCA_site255]”, the “gcPBM binding intensity (ln)” value was 8.98. In the case of “AAAATAAAAATACACATTTTTTTTTTTTTTTTTTTT [TGCATGCA_negctrl_site515]”, the “gcPBM binding intensity (ln)” value is reported as 7.05. “TTTTTTTTTGTTTACACACCCAAATCACATACATAT [CACACA_site4052]” was tested, and the “gcPBM binding intensity (ln)” value was 7.05. In the case of “TTTTTTTTTTTTTTTGCACACTTGATTTGAGCTTAT [CACACA_site4042]”, the “gcPBM binding intensity (ln)” value is reported as 9.45. For ATAATATCTTTATGTGTGCACATATATATATATATA, the “gcPBM binding intensity (ln)” value was 10.5. For “TATATAAATATATATGTACACACATATACATGTTGA [CACACA_site9022]”, the “gcPBM binding intensity (ln)” value was 6.46. In the case of “TTGTTTATTTTTTATTACTATAAAGATGTTATATAT [CACACA_negctrl_site1506]”, the “gcPBM binding intensity (ln)” value is reported as 6.42. With “TTCTTTAAAATAAATTGTACTAACATATATATATAT [XGTACX_site6045]” the “gcPBM binding intensity (ln)” value was 9.11. In the case of “AAAATTTAATATAATGCACACATAAAAAAAAAAAAT [CACACA_site8425]”, the “gcPBM binding intensity (ln)” value is reported as 10.4. In the case of AACTATATATAACTAGTGCAAAGACAATATTTTAAA, the “gcPBM binding intensity (ln)” value is reported as 8.53. With “TATAATATAATATATGCACACAAATATGTATATATG [CACACA_site8664]” the “gcPBM binding intensity (ln)” value was 9.95. With “TATAAATAGATATATACACACATGAAAATAAATAAA [CACACA_site7228]” the “gcPBM binding intensity (ln)” value was 6.7. With “TTACAAAAATGTGGTTGTACACAAACAAAAAAAATA [XGTACX_site8506]” the “gcPBM binding intensity (ln)” value was 6.82. With “GAAAATAGCTAAAATACACACAATTAAAAGTTATTA [CACACA_site7614]” the “gcPBM binding intensity (ln)” value was 6.17. In the case of “TAATTAAATATTTTCCTACAATTAATAAGAAAAGGA [XGTACX_negctrl_site565]”, the “gcPBM binding intensity (ln)” value is reported as 6.18. In the case of “AAGAATAATAACAAATGTACTTATATAAAGTATTAT [XGTACX_site2336]”, the “gcPBM binding intensity (ln)” value is reported as 6.39. “TTTTCCTTTTTGGAATGTACACATATATATTAAATG [XGTACX_site4700]” was tested, and the “gcPBM binding intensity (ln)” value was 6.18. With “AAATATAATATATGCACACATACATACATATATATA [CACACA_site104]” the “gcPBM binding intensity (ln)” value was 10.3. “CAGCTCTTAAAAATTACACACATATACGCATATATA [CACACA_site3267]” was tested, and the “gcPBM binding intensity (ln)” value was 6.49. “TATTAAGAAGAAAATTCACACATTTGTACCTCTCTT [CACACA_site4822]” was tested, and the “gcPBM binding intensity (ln)” value was 6.29. With “TCATGTTTTACAAAAACACACAAATGAATATAAACA [CACACA_site4775]” the “gcPBM binding intensity (ln)” value was 6.78. In the case of “TCGAATTTGGAAAGAAGTACATGAAGCCAACATATG [XGTACX_site5222]”, the “gcPBM binding intensity (ln)” value is reported as 6.68. With “AATAAATAAAAATTATGTACATATATAAAAAATACA [XGTACX_site8581]” the “gcPBM binding intensity (ln)” value was 6.73. For “TATATACATAGACACCCACACACAAAAAAAAAAAAA [CACACA_site8186]”, the “gcPBM binding intensity (ln)” value was 6.43. In the case of “TTTTTTTTTTTTTGGTTCACACTGAAAAGAGAGATA [GTGCAC_negctrl_site439]”, the “gcPBM binding intensity (ln)” value is reported as 6.29. For “TTTCAAACTGTTCTCACACACGAAATTAGAAATGAA [CACACA_site4509]”, the “gcPBM binding intensity (ln)” value was 6.48. “AAAACAAAATAGGGAACACACACATGTCAATATATA [CACACA_site8834]” was tested, and the “gcPBM binding intensity (ln)” value was 6.79. In the case of “CAATCATGGTTTTACACACACATGCATGTGAAAATT [CACACA_site4870]”, the “gcPBM binding intensity (ln)” value is reported as 6.82. In the case of “TTTGATATAGAAAGAGCATGCAAGTTAGATAAAATA [TGCATGCA_site470]”, the “gcPBM binding intensity (ln)” value is reported as 7. In the case of “AATAAATTATTATGTACACACATAATAGTATATATA [CACACA_site1820]”, the “gcPBM binding intensity (ln)” value is reported as 6.23. In the case of “TATATATTAATATACACACACACATATATATATATA [CACACA_site1608]”, the “gcPBM binding intensity (ln)” value is reported as 9.07. For “AAAACATACCTATATACACACATATAAATATAAATA [CACACA_site6956]”, the “gcPBM binding intensity (ln)” value was 6.69. For “ATTTAAGATTTAATCACACACATATATATTATATAC [CACACA_site2907]”, the “gcPBM binding intensity (ln)” value was 6.55. With “ATAATATATGTATATCCACACACATATATATATATA [CACACA_site8471]” the “gcPBM binding intensity (ln)” value was 9.19. For “GCAAATGTGAAAACGTGTACACATTTTATTTAATTT [XGTACX_site8000]”, the “gcPBM binding intensity (ln)” value was 6.35. For “TATTTGTAAATCGATACACACATATATATTAATATA [CACACA_site196]”, the “gcPBM binding intensity (ln)” value was 6.63. In the case of “AAATGTAGATATTATCGTACACATATATTTATATAT [XGTACX_site6326]”, the “gcPBM binding intensity (ln)” value is reported as 6.54.
